# According to PubChem BioAssay AID485294 (National Center for Advancing Translational Sciences (NCATS), 2010):
# Among all 370,000 compounds or so, about 150 (0.041%) were called active. The shares of active, inactive and inconclusive entries below differ from those in the screen. The call rests on the fitted dose curve; in most records, active means well fitted inhibition curve with a large enough effect; inconclusive means small, poorly fitted or top-dose-only effect; inactive means flat fitted curve, though single readings scatter. Potencies of inconclusive entries are left out as doubtful fits.
# Target: Beta-lactamase (Escherichia coli (strain K12)) (UniProt P00811)
# Assay: qHTS Inhibitors of AmpC Beta-Lactamase (assay with detergent); further: nearly all actives have a fitted effect of over 25% in size
# Conditions: AmpC hydrolysis of nitrocefin, absorbance 480 nm, 0.01% Triton; series mostly up to 114 µM
# Outline: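 20 mM phosphate pH 7.0 + 0.01% (detergent screen) or 0.0001% Triton X-100; 5.3 nM AmpC reagent; cpd preinc 15 min RT; nitrocefin (800 uM stock) to start; A480 q20 s × 4 min; Activity was normalised to no-enzyme and no-compound control wells.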
# Potency means the concentration at half of the fitted maximal effect; tags describe the fitted curve by direction and shape.
# Chain of UniProt P00811 (P00811 whole entry, looked up): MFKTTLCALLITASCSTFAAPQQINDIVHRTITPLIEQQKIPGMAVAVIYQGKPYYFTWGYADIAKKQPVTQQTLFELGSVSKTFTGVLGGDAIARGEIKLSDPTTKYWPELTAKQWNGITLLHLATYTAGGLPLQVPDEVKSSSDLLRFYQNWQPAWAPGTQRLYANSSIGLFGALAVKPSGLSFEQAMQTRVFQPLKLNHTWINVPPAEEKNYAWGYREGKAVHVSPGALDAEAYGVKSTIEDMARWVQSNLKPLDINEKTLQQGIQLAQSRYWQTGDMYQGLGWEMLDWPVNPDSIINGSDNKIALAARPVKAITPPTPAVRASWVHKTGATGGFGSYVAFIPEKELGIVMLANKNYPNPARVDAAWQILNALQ
row,Structure (SMILES),Potency
1,CN1C(=O)C(=Cc2cc([N+](=O)[O-])ccc2N2CCCCC2)C(=O)N(C)C1=O,"inconclusive [inhibitor, partial curve]"
2,CCc1cccc2c(C#N)cn(CC(=O)NCc3ccco3)c12,"inconclusive [inhibitor, full curve, poor fit]"
3,COC(=O)Cc1ccc(OC(=O)CCS(=O)(=O)c2ccc(C)cc2)cc1,"inconclusive [inhibitor, full curve, poor fit]"
4,COc1ccccc1OCCOC(=O)Nc1ccccc1,inactive
5,CN(C)C(=O)c1ccc(NC(=O)c2cncc(Br)c2)cc1,"inconclusive [inhibitor, partial curve]"
6,CCCCN(C(=O)c1ccc(Br)o1)C1CCS(=O)(=O)C1 (configuration not stated),"inconclusive [inhibitor, full curve, poor fit]"
7,O=C(Nc1ccc(CN2CCOCC2)cc1)c1ccc(-c2ccc(Cl)cc2Cl)o1,inactive
8,CC(C)c1ccc2nc3sc(C(=O)N4CCc5ccccc5C4)c(N)c3cc2c1,"inconclusive [inhibitor, partial curve]"
9,Clc1ccc(/C=N/Nc2ncnc3nc[nH]c23)cc1,inactive
10,CCCCN(CCCC)CC(O)CN(c1cc([N+](=O)[O-])ccc1OC)S(=O)(=O)c1ccccc1 (configuration not stated),"inconclusive [inhibitor, single point]"
11,Cc1nn(C)cc1C(=O)NNC(=S)Nc1ccccc1,"inconclusive [inhibitor, full curve]"
12,O=c1c2ccccc2ncn1-c1cccc(Br)c1,"inconclusive [inhibitor, full curve, poor fit]"
13,C=CCn1c(CSCc2ccccc2)nnc1SCC(=O)N1CCN(c2ccccc2)CC1,"inconclusive [inhibitor, full curve, poor fit]"
14,COc1ccc(C)cc1S(=O)(=O)N(C)CC(=O)NCc1ccco1,"inconclusive [inhibitor, single point]"
15,CCc1ccccc1NC(=O)COc1ccc2c(=O)c(Oc3cc(C)ccc3C)coc2c1,"inconclusive [inhibitor, full curve, poor fit]"
16,Cc1nn2c(-c3ccccn3)ccnc2c1Br,"inconclusive [inhibitor, full curve]"
17,O=S(=O)(Nc1ccc(-n2cnnn2)cc1)c1ccccc1F,"inconclusive [inhibitor, full curve, poor fit]"
18,COc1ccc(N(C(=O)CS(=O)CC(=O)Nc2ccc(F)cc2)C(C(=O)NC2CCCCC2)c2cccs2)cc1 (configuration not stated),"inconclusive [inhibitor, partial curve, poor fit]"
19,COc1ccc(CNC(=O)Cc2csc3nc(-c4ccc(C)cc4)cn23)cc1,inactive
20,O=C(CN1CCc2cc3c(cc2C1)OCCCO3)Nc1ccc(F)cc1,"inconclusive [inhibitor, full curve, poor fit]"
21,CCOc1cc(Br)c(C(=O)O)cc1OC,"inconclusive [inhibitor, partial curve, poor fit]"

row,Structure (SMILES),Potency
1,COc1ccc(CNC(=O)COC(=O)c2ccc(Br)o2)cc1,"inconclusive [inhibitor, single point]"
2,O=C(NCCCNC(=O)c1ccccc1Cl)c1cnccn1,"inconclusive [inhibitor, full curve]"
3,O=C(CSc1nnc(Nc2ccccc2F)s1)Nc1cccc(S(=O)(=O)N2CCCCC2)c1,"inconclusive [inhibitor, partial curve, poor fit]"
4,Cc1ccc(Nc2cccccc2=O)cc1,"inconclusive [inhibitor, full curve]"
5,CCOC(=O)N1CCC(NC(=O)C2CCN(S(=O)(=O)c3cccc4cccnc34)CC2)CC1,"inconclusive [inhibitor, partial curve]"
6,O=C(C[C@H]1C(=O)N(CCc2ccccc2)C[C@@H]1Cc1ccccc1)Nc1ccccc1,"inconclusive [inhibitor, full curve, poor fit]"
7,CC(C)(C)C1C/C(=C/c2ccccn2)C(=O)/C(=C/c2ccccn2)C1 (configuration not stated),"inconclusive [inhibitor, single point]"
8,Cc1cc(Cl)ccc1NC(=O)C1COc2ccccc2O1 (configuration not stated),inactive
9,Cc1ccc(-n2nc3c(=O)n(CC(=O)NC(C)CCc4ccccc4)nc(C)c3c2C)cc1 (configuration not stated),inactive
10,COc1ccc(OCC(=O)Nc2cccc(C(C)=O)c2)cc1,"inconclusive [inhibitor, full curve]"
11,COc1c(C(C)C)oc2cc3oc(=O)ccc3cc12,"inconclusive [inhibitor, full curve]"
12,Cn1c(N)c(C(=O)CN2CCc3ccccc3C2)c(=O)n(C)c1=O,"inconclusive [inhibitor, partial curve]"
13,Cc1cccc(-n2c(CNC(=O)c3cccc([N+](=O)[O-])c3C)n[nH]c2=S)c1,"inconclusive [inhibitor, single point]"
14,CCOC(=O)C1CCCN(C(=O)Cn2c(=O)c3cccn3c3cccnc32)C1 (configuration not stated),inactive
15,COc1ccc(CCC(=O)Nc2sccc2C#N)cc1,inactive
16,COc1ccc(C(=O)NC(=S)Nc2nnn(C)n2)cc1,"inconclusive [inhibitor, full curve]"
17,COc1ccc(-c2ccc(=O)n(CC(=O)NCc3ccco3)n2)cc1,"inconclusive [inhibitor, partial curve, poor fit]"
18,CCCCNC(=O)c1onc(CSc2ccc(F)cc2)c1C(=O)O,"inconclusive [inhibitor, full curve, poor fit]"
19,O=C(CC1SC2=NCCN2C1=O)Nc1ccccc1 (configuration not stated),inactive
20,CCOc1ccc(/C=N/NC(=O)C2(O)c3ccccc3-c3ccccc32)cc1,"inconclusive [inhibitor, single point]"
21,CCN1C(=O)C2C(c3cccc(F)c3)NC(C)(C(=O)OC)C2C1=O (configuration not stated),"inconclusive [inhibitor, full curve, poor fit]"
